Laboratory results: PubChem BioAssay AID588855 (National Center for Advancing Translational Sciences (NCATS), 2011)
The campaign covered roughly 410,000 compounds. About 5,000 (1.2%) were called active. The inconclusive results got no clear call from the source; some entries with a clear call stand among them for comparison. Calls come from the whole dose curve; as a rule, active = well fitted inhibition curve with a large enough effect; inconclusive = small, poorly fitted or top-dose-only effect; inactive = no such curve, though single readings can be large or run the other way. Potencies beside an inconclusive call are fits to weak or partial responses and may not hold up.

Experiment: qHTS for Inhibitors of TGF-b; note: nearly all actives have a fitted effect of over 65% in size
Details: HepG2 CAGA-GFP TGF-b/SMAD3 reporter, GFP fluorescence, 18 h, TGF-beta stimulated, 500 pg/mL final; series mostly up to 46.1 µM
Outline: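 HEPG2 CAGA-GFP reporter cells (1000/well, DMEM with 1% FBS) received compounds, then recombinant TGF-beta at 500 pg/mL final for 18 hours at 37 degrees C. Per-cell GFP summed per well was normalised to unstimulated and stimulated DMSO controls before curve fitting.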
Potency is the fitted concentration of half-maximal effect; tags give direction and shape of the fitted curve.

Row | Structure (SMILES) | Potency
1 | COc1cccc(CNC(=O)CSc2n[nH]c(-c3ccccc3Cl)n2)c1OC | inactive
2 | COc1ccccc1CNc1nc(Nc2ccccc2-n2cccn2)c2sccc2n1 | inconclusive: 17.8 µM [inhibitor, single point]
3 | CCC(=O)Nc1ccccc1-c1nc2ccccc2n(C(C)C(=O)Nc2cccc(Cl)c2C)c1=O (stereo unspecified) | inconclusive: 10 µM [inhibitor, partial curve, poor fit]
4 | Cc1ccc(F)cc1NC(=O)CSc1nnc(CNC(=O)c2ccco2)n1C | inconclusive: 35.5 µM [inhibitor, single point]
5 | CCOc1ccc(NC(=O)CSc2nc(=O)n(CCCN3CCOCC3)c3c2CCC3)cc1 | inconclusive: 0.891 µM [inhibitor, full curve, poor fit]
6 | O=C(Nc1ccc2c(c1)OCCO2)c1cccc(S(=O)(=O)N2CCCCC2)c1 | inconclusive: 7.08 µM [inhibitor, partial curve]
7 | O=C(NCCCN1CCOCC1)C(=O)NCC1OCCCN1S(=O)(=O)c1cc(F)ccc1F (stereo unspecified) | inconclusive: 0.316 µM [inhibitor, full curve, poor fit]
8 | O=C(NCCc1ccc(Cl)cc1)C1CCN(C(=O)c2ccc(F)cc2)CC1 | inactive
9 | NC(=O)c1ccsc1NC(=O)CCS(=O)(=O)c1ccc(F)cc1 | inconclusive: 22.4 µM [inhibitor, single point]
10 | O=C(c1cccs1)N1CCN(C(=O)c2cccs2)C1=S | active: 6.31 µM
11 | O=C(CCCn1c(=O)c2ccccc2n(CC(=O)Nc2cccc(Cl)c2)c1=O)NCc1ccc2c(c1)OCO2 | inconclusive: 3.55 µM [inhibitor, partial curve, poor fit]
12 | CCOc1cc(O)c(-c2[nH]ncc2-c2nc(C)cs2)cc1CC | inconclusive: 25.1 µM [inhibitor, single point]
13 | N#Cc1nc(-c2cccc(Cl)c2)oc1N1CCC(C(N)=O)CC1 | inconclusive: 5.62 µM [inhibitor, single point]
14 | Cc1ccc(S(=O)(=O)NCC(=O)OCC(=O)NCc2ccco2)cc1 | inactive
15 | COc1ccc(Cl)cc1N1C(=O)/C(=C/c2sccc2C)N=C1SCC(=O)NC1CC1 | inactive
16 | COc1cc(CCCN2C(N)=NC[C@@H]2Cc2ccccc2)cc(OC)c1OC | inconclusive: 25.1 µM [inhibitor, single point]
17 | Cc1cc(C)cc(-n2ccnc2SCC(=O)Nc2ccc(C)cc2C)c1 | inconclusive: 35.5 µM [inhibitor, single point]
18 | S=c1nc(Cc2ccc(Cl)cc2)[nH]c2ccccc12 | inactive
19 | Cc1cc(C)cc(Nc2nc3ccccc3n3cnnc23)c1 | inactive
20 | C[C@H](CO)N1C[C@H](C)[C@@H](CN(C)S(=O)(=O)c2ccc(F)cc2)Oc2ccc(NS(=O)(=O)c3ccc(F)cc3)cc2C1=O | inconclusive: 6.31 µM [inhibitor, single point]
21 | Cc1nc2ccc(S(=O)(=O)NC(C(=O)N3CCN(c4ccc(Cl)cc4)CC3)C(C)C)cc2s1 (stereo unspecified) | inconclusive: 35.5 µM [inhibitor, single point]
22 | O=c1n(Cc2ccc(Cl)cc2)c2ccccc2c2nc(-c3ccccc3)nn12 | inactive

Row | Structure (SMILES) | Potency
23 | O=C1C2C3C=CC(C4CC34)C2C(=O)N1/N=C/c1ccc(-c2ccc([N+](=O)[O-])cc2)o1 (stereo unspecified) | inactive
24 | CC1CCCCC1NC(=O)c1cccc(N2C(=O)C3C4C=CC(C4)C3C2=O)c1 (stereo unspecified) | inconclusive: 12.6 µM [inhibitor, single point]
25 | O=S(=O)(c1ccc2[nH]c3c(c2c1)CCCC3)N1CCN(c2cccc(C(F)(F)F)c2)CC1 | inconclusive: 22.4 µM [inhibitor, single point]
26 | COc1ccc(NC(=O)Nc2cccc(OCc3cc(=O)n4cccc(C)c4n3)c2)c(OC)c1 | inconclusive: 3.98 µM [inhibitor, full curve, poor fit]
27 | C(=C\c1ccccc1)/CN1CCN(C(CCc2ccccc2)c2nnnn2C2CCCCC2)CC1 (stereo unspecified) | inconclusive: 25.1 µM [inhibitor, single point]
28 | COc1cc(OC)c2c(-c3ccccc3)cc(=O)oc2c1C(CCN1CCN(c2ccccc2)CC1)c1ccc(N(C)C)cc1 (stereo unspecified) | inconclusive: 35.5 µM [inhibitor, single point]
29 | COc1ccc(-c2cnc3c(NC=O)cc(-c4ccc(F)cc4)cn23)cc1OC | inconclusive: 12.6 µM [inhibitor, partial curve, poor fit]
30 | Cc1c(NC(=O)c2cc(-n3cnnc3)ccc2Cl)cccc1-c1nc2ccccc2o1 | inconclusive: 35.5 µM [inhibitor, single point]
31 | COc1ccc(-c2csc(Nc3ccc(S(N)(=O)=O)cc3)n2)cc1 | inconclusive: 12.6 µM [inhibitor, single point]
32 | CC[C@]12c3[nH]c4cc(-c5ccco5)ccc4c3CCN1C(=O)[C@@H](CC(=O)NCCc1ccccn1)C[C@@H]2C(=O)N1CCN(C(=O)C2CC2)CC1 | inconclusive: 35.5 µM [inhibitor, single point]
33 | CC(=O)c1c(-c2ccccc2)c2cc(Cl)ccc2n(C)c1=O | inconclusive: 17.8 µM [inhibitor, single point]
34 | CCc1nn(CCCC(=O)N(C)Cc2ccccc2)c(=O)c2cc3occc3n12 | inconclusive: 5.62 µM [inhibitor, single point]
35 | CCC(CC)C(=O)Nc1cccc(C(=O)Nc2ccc(S(=O)(=O)Nc3ccc(C)cc3)cc2)c1 | inconclusive: 35.5 µM [inhibitor, single point]
36 | COC(=O)CN1CCC(=O)c2ccccc2S1(=O)=O | inactive
37 | CCN(C(=O)COC(=O)c1ccccc1NCc1ccco1)c1c(N)n(Cc2ccccc2)c(=O)[nH]c1=O | inconclusive: 17.8 µM [inhibitor, single point]
38 | C=CCOC(=O)C1=C[C@@H](c2ccc(Br)cc2)C[C@@H](OCCCCO)O1 | inconclusive: 2.82 µM [inhibitor, single point]
39 | CCC(O)c1cnc(OCc2ccccc2)nc1OCc1ccccc1 (stereo unspecified) | inconclusive: 35.5 µM [inhibitor, single point]
40 | COc1ccc(S(=O)(=O)N(C)C[C@H]2Oc3c(NS(=O)(=O)c4cn(C)cn4)cccc3C(=O)N([C@H](C)CO)C[C@@H]2C)cc1 | inconclusive: 5.62 µM [inhibitor, single point]
41 | Cc1cccc(C(=O)N2CCc3cc(CNC(=O)c4ccc(Br)o4)ccc32)c1 | inconclusive: 20 µM [inhibitor, partial curve, poor fit]
42 | CCOc1ccccc1NC(=O)C(c1ccccc1)N1CCN(CC(=O)N2CCOCC2)CC1 (stereo unspecified) | inactive
43 | O=[N+]([O-])c1ccc(S(=O)(=O)NCc2nc3cccnc3n2Cc2ccccc2Cl)cc1 | inconclusive: 11.2 µM [inhibitor, partial curve, poor fit]
44 | COc1cc2c(cc1NC(=S)Nc1cccc(C(F)(F)F)c1)oc1ccccc12 | inconclusive: 22.4 µM [inhibitor, single point]

Row | Structure (SMILES) | Potency
45 | C[n+]1c(/C=C/c2ccc(F)cc2)ccc2ccccc21 | inconclusive: 11.2 µM [inhibitor, single point]
46 | COc1cccc(-c2nc(NCCN3CCOCC3)c3ccccc3n2)c1O | inactive
47 | O=C(c1ccoc1)N1CCN(c2cc(-c3ccccc3)nc3cc(-c4ccccc4)nn23)CC1 | inconclusive: 11.2 µM [inhibitor, partial curve]
48 | CCn1c(CSCc2ccc(C)cc2)n[nH]c1=S | inactive
49 | O=C(O)c1cc([N+](=O)[O-])ccc1N1CCCCC1 | inactive
50 | CC(C)C(NC(=O)c1ccco1)C(=O)OCc1cc([N+](=O)[O-])cc2c1OCOC2 (stereo unspecified) | inconclusive: 1.26 µM [inhibitor, full curve, poor fit]
51 | O=C(CSc1ccc2nnc(-c3cccnc3)n2n1)Nc1ccccc1C(F)(F)F | inactive
52 | Cc1ccc(CNC(=O)c2cnc(N3CCCCC3)c3ccccc23)cc1 | active: 11.2 µM
53 | COc1ccc(-c2csc(C(O)(c3ccccc3)C(F)(F)F)n2)cn1 (stereo unspecified) | inconclusive: 5.62 µM [inhibitor, partial curve, poor fit]
54 | O=C(NCCN1CCOCC1)c1ccc(/C=C2\Sc3ccccc3N(Cc3ccccc3F)C2=O)cc1 | inconclusive: 35.5 µM [inhibitor, single point]
55 | Cc1ccc2nc(SC(C(=O)Nc3ccc(F)cc3)c3ccccc3)[nH]c2c1 (stereo unspecified) | inconclusive: 10 µM [inhibitor, partial curve, poor fit]
56 | CCn1cc(Cl)c(C(=O)Nc2cccc(C(F)(F)F)c2)n1 | inactive
57 | COc1ccccc1CNc1nc(NCCNC(C)=O)c2sccc2n1 | inactive
58 | CCc1ccc(-c2cc(C(=O)Nn3cnnc3)c3ccccc3n2)cc1 | inconclusive: 25.1 µM [inhibitor, single point]
59 | Cc1ccccc1CN1Cc2cccc3c2[C@H](C=CC3)CC1=O | inconclusive: 20 µM [inhibitor, single point]
60 | Cc1cc(C)cc(OCC(=O)Nc2nc(-c3cccnc3)cs2)c1 | inactive
61 | C#CCn1c(=NC(=O)c2ccco2)sc2cccc(Cl)c21 | inactive
62 | CCc1nc2c(OCc3c(C)noc3C)cccn2c1N(C=O)Cc1ccc(OC)cc1 | inactive
63 | O=C(NC(=O)c1ccccc1)Nc1ccc(-n2nc(C(F)(F)F)cc2C(F)(F)F)cc1 | inactive
64 | CC(=O)NNC(=S)NC(=O)C(c1ccccc1)c1ccccc1 | inactive
65 | CC1CCC(N(C)C(=O)CN2C(=O)NC(c3ccccc3)(c3ccccc3)C2=O)CC1 (stereo unspecified) | inactive
66 | Cc1ccc(-c2nc(CN(CC3CCC3)CC3CCCO3)c(C)o2)s1 (stereo unspecified) | inconclusive: 25.1 µM [inhibitor, single point]
